The test concerns the target T1, endogenous NUFIP2 (HEK293T cells) (human (endogenous in HEK293T)) (UniProt Q7Z417).
T1 sequence: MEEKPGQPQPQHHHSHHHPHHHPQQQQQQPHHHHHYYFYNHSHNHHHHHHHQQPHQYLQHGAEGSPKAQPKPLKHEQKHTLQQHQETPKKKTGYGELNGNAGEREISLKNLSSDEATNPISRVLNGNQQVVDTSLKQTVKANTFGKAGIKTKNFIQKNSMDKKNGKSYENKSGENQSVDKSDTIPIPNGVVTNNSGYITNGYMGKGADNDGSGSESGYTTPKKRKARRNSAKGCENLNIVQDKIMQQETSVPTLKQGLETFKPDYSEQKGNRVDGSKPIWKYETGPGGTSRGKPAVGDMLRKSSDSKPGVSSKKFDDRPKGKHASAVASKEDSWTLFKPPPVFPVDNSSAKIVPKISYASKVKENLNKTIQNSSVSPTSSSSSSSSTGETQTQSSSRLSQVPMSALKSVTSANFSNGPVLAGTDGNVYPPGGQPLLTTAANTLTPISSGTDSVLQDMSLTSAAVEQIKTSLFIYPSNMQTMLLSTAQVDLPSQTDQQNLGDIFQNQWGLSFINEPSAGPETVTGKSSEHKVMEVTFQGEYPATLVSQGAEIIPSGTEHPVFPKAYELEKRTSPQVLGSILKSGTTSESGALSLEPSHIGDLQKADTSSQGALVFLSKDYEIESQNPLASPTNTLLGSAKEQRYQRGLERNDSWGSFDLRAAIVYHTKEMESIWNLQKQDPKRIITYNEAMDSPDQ
In words: co-IP; anti-Nufip2 (23G8) on Protein G Dynabeads; endogenous NUFIP2 from lysates of HEK293T cells transfected with Roquin-1 with or without FLAG-Fmrp; immunoblot. On the technique in general: A western blot detects proteins with antibodies after separation by electrophoresis.

These are yes or no findings as the source states them, for the method shown. In cells and extracts the contact can be indirect. Some binding calls cover weakened binding; strength is not graded here.

B1: Roquin-1 (transfected, HEK293T) (protein, UniProt Q4VGL6 1-1130)
chain: MPVQAPQWTDFLSCPICTQTFDETIRKPISLGCGHTVCKMCLNKLHRKACPFDQTTINTDIELLPVNSALLQLVGAQIPEQQPITLCSGVEDTKHYEEAKKCVEELALYLKPLSSARGVGLNSTTQSVLSRPMQRKLVTLVHCQLVEEEGRIRAMRAARSLGERTVTELILQHQNPQQLSSNLWAAVRARGCQFLGPAMQEEALKLVLLALEDGSALSRKVLVLFVVQRLEPRFPQASKTSIGHVVQLLYRASCFKVTKRDEDSSLMQLKEEFRTYEALRREHDSQIVQIAMEAGLRIAPDQWSSLLYGDQSHKSHMQSIIDKLQTPASFAQSVQELTIALQRTGDPANLNRLRPHLELLANIDPSPDAPPPTWEQLENGLVAVRTVVHGLVDYIQNHSKKGADQQQPPQHSKYKTYMCRDMKQRGGCPRGASCTFAHSQEELEKFRKMNKRLVPRRPLSASLGQLNEVGLPSAPILSDESAVDLSNRKPPALPNGIASSGSTVTQLIPRGTDPSFDSSLKPVKLDHLSSSAPGSPPDLLESAPKSISALPVNPHPVPPRGPTDLPPMPVTKPIQMVPRGSQLYPAQQADVYYQDPRGSAPAFETAPYQQGMYYTPPPCVSRFVRPPPSAPEPGPPYLDHYSPYLQDRVINSQYGTQPQQYPPMYPAHYDGRRVYPAQSYTREEMFRESPIPIDIPSAAVPSYVPESRERYQQVEGYYPVAPHPAQIRPSYPRDPPYSRLPPPQPHPSLDELHRRRKEIMAQLEERKVISPPPFAPSPTLPPAFHPEEFLDEDLKVAGKYKANDYSQYSPWSCDTIGSYIGTKDAKPKDVVAAGSVEMMNVESKGTREQRLDLQRRAVETSDDDLIPFGDRPTVSRFGAISRTSKTLYQGAGPLQAIAPQGAPTKSINISDYSAYGAHGGWGDSPYSPHANIPPQGHFIEREKMSMAEVASHGKPLLSAEREQLRLELQQLNHQISQQTQLRGLEAVSNRLVLQREVNTLASQPQPPQLPPKWPGMISSEQLSLELHQVEREIGKRTRELSMENQCSVDMKSKLGTSKQAENGQPEPQNKIRTEDLTLTFSDVPNGSALTQENLSLLSNKTSSLNLSEDSEGGGDNNDSQRSGVVSNSAP
As for B1, the binding entry was “binds”.

Values taken from PMC5775257.
